Among all 44,000 compounds or so, about 340 (0.77%) were called active. Inconclusive results (about 5%) are left out. Calls follow the shape of the dose curve; as a rule, active = well fitted inhibition curve with a large enough effect; inconclusive = small, poorly fitted or top-dose-only effect; inactive = flat fitted curve, though single readings scatter. Some of the results follow.
experiment: Acumen qHTS Assay for Inhibitors of the mTORC1 Signaling Pathway in MEF (Tsc2-/-, p53-/-) Cells: Sytravon; settings: phospho-rpS6 immunofluorescence/PI, 24 h; series mostly up to 38.3 µM; activity change, negative = inhibition: at the top concentration; also: nearly all actives have a fitted effect of over 50% in size
Text: NIH Molecular Libraries Probe Production Centers Network [MLPCN] NIH Chemical Genomics Center [NCGC] MLPCN Grant: NS059428-01 Assay Submitter (PI): Blenis, John; Hoffman, Greg; Harvard University NCGC Assay Overview: The mammalian target of rapamycin (mTOR) is an intracellular serine/threonine kinase Aberrant regulation of mTOR signaling plays a causative role in a number of human diseases, including cancer, benign tumors such as lymphangioleiomyomatosis (LAM) and Tuberous Sclerosis Complex (TSC), and metabolic diseases such as diabetes and obesity. This project aims to identify inhibitors of ribosomal protein S6 (rpS6) phosphorylation. The phosphorylation of rpS6 is a key event downstream of mTOR activation. The assay uses a phospho-specific antibody of phospho-rpS6 to detect inhibitors of mTOR activation. Mutations in the Tsc1 and Tsc2 genes are the underlying genetic lesions responsible for TSC, causing constitutive activation of the mTORC1 pathway and leading to profound effects on cell metabolism. Aberrant metabolism in cancer has recently received significant attention as a target to develop therapeutic agents in the treatment of cancer.1 As Tsc2-/- cells have lost the ability to respond to energy and growth factor deprivation, these cells are unable to properly down regulate cellular biosynthetic processes in response to metabolic stress, and are thus extremely sensitive to glucose deprivation-induced death.2 A central goal of this project is to explore the unique cell survival and metabolic properties of cells with Tsc1 or Tsc2 by screening for compounds that selectively target the Tsc2-/- MEFs by screening both Tsc2-/- and WT MEF cell lines. We hope to better understand these aspects of TSC physiology in order to exploit them for therapeutic benefit.
NCGC Acumen Assay Protocol Summary: For quantitative high throughput analysis of mTORC1 signaling, we developed a cell-based assay for immuno-fluorescence based detection of rpS6 phosphorylation on the Acumen Explorer that will be used a platform for the primary small molecule screen. Mouse embryonic fibroblasts (MEFs) are cultured in 1536-well plates using DMEM + 10% FBS. Twenty-four hrs after plating, test compounds (solubilized in DMSO) are delivered and incubated with the cells for 24 hrs at 37 degree Celsius. Following the incubation, media with compound is aspirated and the cells are fixed in 4% paraformaldehyde (PFA) containing PBS + 0.2% TX-100. Next, PFA is aspirated, cells are washed two times with PBS plus 0.2% TX-100 and the cells are blocked for 1 hr at room temperature (blocking buffer: LiCOR Blocking Buffer plus 0.2% TX-100). […] Cells are washed two times with PBS plus 0.2% TX-100, and stained with 10 uM propidium iodide (PI) for 20-25 minutes for cell number measurement (1:500 dilution of Hoescht staining is also added for IN Cell imaging). The plates are scanned on the Acumen Explorer laser scanning instrument (TTP Labtech) using the 488nm laser for simultaneous excitation of the Alexa-488 and PI. […] The normalized phospho-S6 staining is calculated as the ratio of the integrated Alexa 488 intensity divided by the integrated PI intensity for the single concentration rapamycin control (7.5 nM) and DMSO columns. […] Inhibition of the pathway is defined based on the normalized phospho-S6 intensity in rapamycin treated cells. Active cells are defined as those with a normalized phospho-S6 staining above this threshold, and each treatment is reported as the % positive cells in the well, where thresholds are defined by selecting wells with the highest and lowest signal and differentiating between the % non-active and % active populations. In addition to the pathway specific phospho-S6 endpoint, the number of PI stained cells from the Acumen is recorded as a measure of cell viability. The primary screen was performed with a MEF cell line in a defined genetic background, Tsc2-/-, p53-/- cell line stably transfected with an empty vector control (Tsc2-/- MEF).

Activity change, negative = inhibition, inactive:
COc1ccc(Cl)cc1S(=O)(=O)N1CCN(Cc2cccc(F)c2)CC1 -3.05%
CCOC(=O)c1ccc(NC(=O)C2CCN(C(=O)N3CC(C)Oc4ccc(C)cc43)CC2)cc1 (centres undefined) 3.32%
O=S(=O)(NCCc1csc2nc(-c3ccc(Cl)cc3)nn12)c1ccc(Oc2ccccc2)cc1 0.827%
CC(=O)c1cccc(NC(=O)CSc2nnc3ccc(-c4ccc(C)cc4)nn23)c1 5.83%
Cc1cc2nc(-c3ccc(Cl)cc3)cc(C(F)(F)F)n2n1 -1.77%
Cc1ccccc1-c1nc(C(N)=O)c2c(n1)n(-c1ccc3c(c1)OCO3)c(=O)n2C -4.73%
CN(C)S(=O)(=O)c1ccc2c(c1)N(CC(=O)NCc1cccc(Br)c1)C(=O)CS2 -3.22%
Cc1ccc(-c2nnc(NC(=O)c3ccc4c(c3)OCCO4)o2)c(C)c1 2.58%
Cc1cc2c(cc1S(=O)(=O)CCC(=O)NC1CCC(C)CC1)OCC(=O)N2 (centres undefined) -8.6%
COc1ccccc1-c1nnc2n(CCc3ccccc3)c(=O)c3ccccc3n12 2.38%
O=C1CC(c2nnc(Cc3ccc(Cl)cc3)o2)CN1c1ccccc1 (centres undefined) 2.86%
O=c1cc2nc(-c3cccs3)nc(SCCOc3ccc(Cl)cc3)n2[nH]1 7.59%
CCn1c(=N)c(C(=O)NC2CCCCC2)cc2c(=O)n3cccc(C)c3nc21 1.49%
Cc1ccc(C)c(Cn2c(=O)n(Cc3ccc(C(=O)NC4CCN(Cc5ccccc5)CC4)cc3)c(=O)c3ccccc32)c1 -5.34%
Cc1ccc(O)c(NC(=O)c2noc3c2CCCCC3)c1 -14%
COc1cccc(-n2cc(C(=O)Oc3cccc(C(F)(F)F)c3)c3ccccc3c2=O)c1 -14.2%
O=C(CC1C(=O)N(c2ccc(F)cc2)C(=O)N1Cc1ccc2c(c1)OCO2)Nc1ccc(F)cc1 (centres undefined) -1.45%
CC(=O)N1c2ccccc2CC1C(=O)N1CCN(c2cccc(Cl)c2)CC1 (centres undefined) 13.2%
COc1cccc(CNC(=O)CN2C(=O)CCCc3ccccc32)c1OC -3.53%
CCOc1ccc(OCC)c(NC(=O)C(NS(=O)(=O)c2ccc(Br)s2)c2ccccc2)c1 (centres undefined) -18.9%
Cc1ccc(C)c(CN2C(=O)c3ccccc3S(=O)(=O)c3ccc(C(=O)N4CCCC4)cc32)c1 -4.06%
CCOC(=O)c1cnc2c(C)cccc2c1NCCc1ccc(OC)c(OC)c1 -6.63%
CCc1ccc(NC(=O)c2ccc3oc(=O)n(Cc4ccccc4)c3c2)cc1 12%
Nc1c(-c2nc(-c3cccs3)no2)nnn1-c1cccc(F)c1 -7.73%
CCN(c1ncnc2c1cnn2-c1cc(Cl)ccc1C)C1CCCCC1 -13.8%
CCc1sc(Nc2ccc(C)cc2Br)nc1-c1cc2cccc(OC)c2oc1=O 0.464%
CCOC(=O)CSc1nc2c(sc3ccccc32)c(=O)n1Cc1ccc(C)cc1 0.028%
CC(=O)NCCNc1nc2c(-c3ccc(C)cc3)nnn2c2ccccc12 -20.6%
CCCN(CCC)C(=O)Cn1c(=O)n(-c2ccc(C)cc2)c(=O)c2ccc(C(=O)NCc3ccccc3Cl)cc21 -3.95%
CNC(=O)C1CCN(Cc2cc3ccccc3n2Cc2ccccc2C)CC1 -13.2%
CCCCNC(=O)Cn1c(=O)cc(C)c2c(C)nn(-c3ccc(CC)cc3)c21 -9.68%
CCC1CN(C(=O)N2CCC(C(=O)NCCc3ccc(C)cc3)CC2)c2ccccc2O1 (centres undefined) 10.1%
O=C(CCc1nnc2n(Cc3ccccc3Cl)c(=O)c3ccccc3n12)Nc1ccc(F)c(F)c1 -1.58%
Cc1ccc(-n2nc(CO)c(C(=O)NCC(c3ccccc3)c3ccccc3)n2)cc1 1.45%
O=C(NCc1cccc(Br)c1)C1CCN(C(=O)c2sccc2-n2cccc2)CC1 -1.54%
Cc1oc(-c2ccccc2)nc1CSc1nnc(C)n2c1cc1sccc12 2.37%
CCOCCCNC(=O)CCC(=O)NNc1nc2ccccc2c2nc(-c3ccccc3)nn12 0.234%
CCCOc1ccc(C(=O)Nc2ccc(NC(=O)c3cccc(Cl)c3)cc2)cc1 4.1%
Cc1ccc(C)c(N2CCN(C(=O)c3cc(S(=O)(=O)N4CCCC4)c[nH]3)CC2)c1 -1.81%
COc1cccc(Nc2cc(-c3ccccc3)nc(C)n2)c1 0%
COc1ccc(NC(=O)c2c(NCc3cccc(OC)c3)sc3c2CCC3)cc1 0.56%
COc1ccc(C)c2sc(N(Cc3cccnc3)C(=O)COc3ccccc3)nc12 -0.598%
Cc1cccc(Nc2ncnc3c2cnn3C)c1C 5.4%
COc1cc(OC)cc(C(=O)NCc2ccc3c(c2)CCN3C(=O)c2ccccc2)c1 -5.29%
Cc1ccc(-n2ncc3c(N4CCN(C)CC4)ncnc32)cc1 -0.418%
Cc1ccc2c(c1)N(C(=O)N1CCC(C(=O)NC3CCCCCC3)CC1)CCO2 -7.11%
CN(C)c1ccc(-c2nc(-c3ccncc3)no2)cc1[N+](=O)[O-] -0.848%
COc1ccc(CC(=O)N2CC(=O)Nc3ccc(Br)cc3C2c2ccc(F)cc2)cc1OC (centres undefined) 7.04%
COc1cc2nc(NCc3ccccc3Cl)n3nc(-c4cccnc4)nc3c2cc1OC 0.789%
